According to PubChem BioAssay AID493208 (National Center for Advancing Translational Sciences (NCATS), 2011):
Among all 44,000 compounds or so, about 340 (0.77%) were called active. Another 5% or so got no clear call; they are omitted. Calls follow the shape of the dose curve; as a rule, active = well fitted inhibition curve with a large enough effect; inconclusive = small, poorly fitted or top-dose-only effect; inactive = flat fitted curve, though single readings scatter. The list shows a part of the results.

Assay: Acumen qHTS Assay for Inhibitors of the mTORC1 Signaling Pathway in MEF (Tsc2-/-, p53-/-) Cells: Sytravon;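 also: plate controls were DMSO for no effect and rapamycin for full effect; nearly all actives have a fitted effect of over 50% in size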
Conditions: phospho-rpS6 immunofluorescence/PI, 24 h; series mostly up to 38.3 µM; activity change, negative = inhibition: at the top concentration
In short: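 Tsc2-/-, p53-/- MEFs (empty-vector stable line) in DMEM + 10% FBS were treated with compounds 24 h at 37 degree Celsius, fixed, and immunostained for phospho-rpS6 (Alexa-488) with propidium iodide counterstain. Laser-scanning cytometry gave % positive cells, normalized against 7.5 nM rapamycin and DMSO.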

Activity change, negative = inhibition, inactive:
COCCNC(=O)c1ccc2c(=O)n(CCc3ccccc3)c(SCC(=O)CC(=O)OC)nc2c1 -0.0384%
COc1ccccc1CNC(=O)c1ccc(CS(=O)(=O)c2c(Cl)cccc2Cl)o1 -0.504%
Cc1cccc(OCCSc2nc3ccccc3n2CC(=O)N2CCOCC2)c1 -3.57%
CCc1ccc(CNC(=O)c2c3c(nc4ccccc24)C(=O)N(C2CCCCC2)C3)cc1 -10.4%
CCOC(=O)c1ccc(N2C(=O)c3[nH]nc(-c4ccc(C)cc4)c3C2c2ccc(O)c(OCC)c2)cc1 (configuration not stated) 0.613%
CCCn1c(=O)c2sccc2n2c(CCCC(=O)N3CCN(c4ccccc4OC)CC3)nnc12 -4.41%
CCOC(=O)c1c(C)[nH]c(C)c1S(=O)(=O)N(C)CC(=O)Nc1cc(Cl)ccc1C 1.93%
COc1cc2c(=O)c(C(=O)c3ccc(C)c(C)c3)cn(Cc3ccccc3F)c2cc1OC -17.4%
Cc1ccc2c(=O)cc(C(=O)Nc3sc4c(c3C(=O)NCc3ccco3)CCC4)oc2c1 -0.536%
CC1=C(C(=O)OCc2ccc(C)cc2)C(c2ccccc2F)CC(=O)N1 (configuration not stated) -15.3%
COc1ccccc1NC(=O)CSc1nnc(-c2ccccc2C)o1 -1.72%
O=C(NCc1ccccc1F)C1CCN(c2nnc(-n3cccc3)s2)CC1 1.19%
COc1cc(NC(=O)CCc2c(C)nn(-c3ccc(N4CCOCC4)nn3)c2C)cc(OC)c1OC -7.72%
COc1ccc2c(c1)c(=O)c(C(=O)c1ccccc1)cn2CC(=O)Nc1ccc2c(c1)OCCO2 -9.32%
CSc1ncc(Cl)c(C(=O)Nc2ccc(S(=O)(=O)N3CCC(C)CC3)cc2)n1 -12.8%
COc1cccc(CNC(=O)C2CCN(c3nc4ccc(Cl)cc4[nH]3)CC2)c1 8.6%
CCCCc1cc(=O)oc2cc(C)c3c(C)coc3c12 0%
O=C(NCCn1cc(SCc2ccc(F)cc2)c2ccccc21)c1c(F)cccc1F -10.4%
CCOC(=O)c1cccc(NC(=O)c2ccc3c(c2)nnn3C2CCCC2)c1 -5.76%
Cc1ccc(Cn2c(C(=O)Nc3cccc(Cl)c3)cc3sccc32)cc1 0.705%
Cn1cnc(S(=O)(=O)N2CCCC(C(=O)Nc3ccc(F)cc3Cl)C2)c1 (configuration not stated) 0%
COc1ccc2c(c1)CC(NC(=O)Nc1cc(Cl)ccc1OC)CO2 (configuration not stated) -16.4%
COc1cccc(C(=O)Nc2ccc(Cl)c(-c3nc4ccccc4[nH]3)c2)c1 -32.3%
CSc1nc(C)cc(Nc2c(C)cc(C)cc2C)n1 -3.08%
CCc1ccc(OCCCSc2nc(-c3ccc(C(C)(C)C)cc3)nc3cc(=O)[nH]n23)cc1 -13.4%
COC(=O)c1ccc(NS(=O)(=O)c2ccc(-n3cccn3)cc2)cc1 -10.2%
Cc1ccc(S(=O)(=O)c2cn(C)c3cc(N4CCCCCC4)c(F)cc3c2=O)cc1 -8.39%
